Results published in the RNAGym collection of RNA variant scans (doi:10.7554/elife.90254).
Read counts are not given, so values of variants with three or more changes are uncertain.

B1: LINE1-mini (parent)
chain: GGCAGAGCUCAACACAGCGUGGCAAAGUGGCUGUGGCUAGACUGCC

Variants of: B1
Experiment: self-cleavage, relative activity (ratio to wild type); higher = more cleavage; in vitro, sequencing; the parent is a self-cleaving ribozyme
For GGCAGAGCUAAAAACAGCAUGGCAAAGUGGCUGUUGCUAGACUCCC [C10A C13A G19A G35U G44C], the self-cleavage was 0.15.
Variant GGCAGAGCUAAAGACGGCGUGUCAAAGUUGCUGUGGCUAGAUUGCC [C10A C13G A16G G22U G29U C42U] has a self-cleavage of 0.
GGCAGAGCUAAAGACAGAGUGGCAAAGUGGCUGUGGCCAGACUGCC [C10A C13G C18A U38C] showed a self-cleavage of 0.
GGCAGAGCUAAAGACAGCCUGGCAAAGUGGCUGUGUCUAGACUGCC [C10A C13G G19C G36U] gave a self-cleavage of 0.
With GGCAGAGCUAAAGACAGCGUGGCAAAGAGGCUGUGGUUAGACUGCC [C10A C13G U28A C37U] the self-cleavage was 0.02.
In the case of GGCAGAGCUAAAUCCAGCGUGGCAAAGUGGCUGUGGCUAGACUGCC [C10A C13U A14C], the self-cleavage is reported as 0.04.
With GGCAGAGCUAAAUACAGCGUGGCGAAGUGGCAGUGGUUAGACUGCC [C10A C13U A24G U32A C37U] the self-cleavage was 0.04.
For GGCAGAGCUAAAUAUAGCGUGGCAAAGUAGCUGUGGCGACACUGCC [C10A C13U C15U G29A U38G G40C], the self-cleavage was 0.03.
GGCAGAGCUAAAUACAGCGUGUCAAAGUGGCUGUGGCUAGACUGCC [C10A C13U G22U] showed a self-cleavage of 0.1.
GGCAGAGCUAAAUACAGCGUGGCAAAGUGGCUUUGGCUAGACUGCC [C10A C13U G33U] gave a self-cleavage of 0.05.
GGCAGAGCUAAAUACAGCGUGGCAAAGUGGCUGUGGCUAUACUGCC [C10A C13U G40U] showed a self-cleavage of 0.03.
Variant GGCAGAGCUAAAUACAGCGUGGCAAAGUGGCUGUGGCUAGACAGCC [C10A C13U U43A] has a self-cleavage of 0.02.
For GGCAGAGCUAAACAAAGGGUGGGAAAGUGGCUGUAGCUAGACUGCC [C10A C15A C18G C23G G35A], the self-cleavage was 0.01.
Work on GGCAGAGCUAAACAAAGCGUGGAAAAGUGGCUGUGGCUAGACUGCC [C10A C15A C23A] yielded a self-cleavage of 0.03.
Work on GGCAGAGCUAAACAAAGCGUGGCAAAGUUGCUGUGGCUAGACUGCC [C10A C15A G29U] yielded a self-cleavage of 0.05.
With GGCAGAGCUAAACAAAGCGUGGCAAAGUGGCUGUGGCUAAACUGCC [C10A C15A G40A] the self-cleavage was 0.01.
In the case of GGCAGAGCUAAACAAAGCGUGGCAAAGUGGCUGUGGCUAUACUGCC [C10A C15A G40U], the self-cleavage is reported as 0.04.
For GGCAGAGCUAAACAAAGCGUGGCAAAGUGGCUGAGGCUAGACUGCC [C10A C15A U34A], the self-cleavage was 0.
GGCAGAGCUAAACAGAGCGUGGCUAAGUGGCUGUGGCUAGACUGCC [C10A C15G A24U] showed a self-cleavage of 0.01.
In the case of GGCAGAGCUAAACAGAGUGUAGCAAAGUGGCUAUGGCUAGACUGCC [C10A C15G C18U G21A G33A], the self-cleavage is reported as 0.02.
For GGCAGAGCUAAACAGAGCGUGGUAAAGUGGCUGUGGCUAGACUGCA [C10A C15G C23U C46A], the self-cleavage was 0.
GGCAGAGCUAAACAGAACGUGGCAAAGUGGCUAUGGCAAAACUGCC [C10A C15G G17A G33A U38A G40A] gave a self-cleavage of 0.01.
In the case of GGCAGAGCUAAACAUAGCGUGGCGAGGUGGCUCUCGCUAGACUGCC [C10A C15U A24G A26G G33C G35C], the self-cleavage is reported as 0.02.
GGCAGAGCUAAACAUAGCGUGGCAAAAUGGCUGUGGCUAGACUGCC [C10A C15U G27A] showed a self-cleavage of 0.08.
GGCAGAGCUAAACACAGAGUGGCCAAGUGUCUGUGGCUAGACUGCC [C10A C18A A24C G30U] showed a self-cleavage of 0.04.
Work on GGCAGAGCUAAACACAGAGUGGCAAAGUGGCUGUGGGUAGACUGCC [C10A C18A C37G] yielded a self-cleavage of 0.06.
Work on GGCAGAGCUAAACACAGAGUGGCAAAGUCUAUGUGGCUAGACUCCC [C10A C18A G29C G30U C31A G44C] yielded a self-cleavage of 0.
In the case of GGCAGAGCUAAACACAGAGUGGCAAAGUGACUGUGGCUAGACUGCC [C10A C18A G30A], the self-cleavage is reported as 0.1.
In the case of GGCAGAGCUAAACACAGGGUGGGAAAGUGGCUGCCGCUAGAGUGCC [C10A C18G C23G U34C G35C C42G], the self-cleavage is reported as 0.
Work on GGCAGAGCUAAACACAGGGUGGCAAAGUGGCUGUGGCUAGAUUGCC [C10A C18G C42U] yielded a self-cleavage of 0.02.
GGCAGAGCUAAACACAGGGUGGCAAAAUGGUUGUGGCUCGAAUGCC [C10A C18G G27A C31U A39C C42A] gave a self-cleavage of 0.
With GGCAGAGCUAAACACAGGGUGGCAAAGUGGCGGUGGCAAGACUGCC [C10A C18G U32G U38A] the self-cleavage was 0.01.
Variant GGCAGAGCUAAACACAGUGUGGCAAAGUGGCUGUGGCUGGACUGCC [C10A C18U A39G] has a self-cleavage of 0.02.
Variant GGCAGAGCUAAACACAGUGUGGAAAAGUGGCUAUGGCUAGACUGCC [C10A C18U C23A G33A] has a self-cleavage of 0.
GGCAGAGCUAAACACAGUCUGGCAUAAUGGCUGUUGCUAUAGUGCC [C10A C18U G19C A25U G27A G35U G40U C42G] gave a self-cleavage of 0.02.
Work on GGCAGAGCUAAACACAGUCUGGCAAAGUGGCUGUGGCUAGAAUGCC [C10A C18U G19C C42A] yielded a self-cleavage of 0.02.
In the case of GGCAGAGCUAAACACAGUGUGGCAAAGUAGCUGUGGCUAGACUGCC [C10A C18U G29A], the self-cleavage is reported as 0.
For GGCAGAGCUAAACACAGUGUGGCAAAGUGGCUGUCGCUAGACUGCC [C10A C18U G35C], the self-cleavage was 0.02.
Work on GGCAGAGCUAAACACAGUGUGGCAAAGUGGCUGUGGCUAGACAGCC [C10A C18U U43A] yielded a self-cleavage of 0.03.
Variant GGCAGAGCUAAACACAGCGUGGAAACGUGGCUGUGGCUAGACUGCC [C10A C23A A26C] has a self-cleavage of 0.02.
With GGCAGAGCUAAACACAGCGUGGAAAAGUGGCUGUGGCUAGGCUGCC [C10A C23A A41G] the self-cleavage was 0.02.
GGCAGAGCUAAACACAGCGUGGAAAAGUGGCUGUGGCUAGAGUGCC [C10A C23A C42G] showed a self-cleavage of 0.03.
GGCAGAGCUAAACACAGCGUGGAAAAGUUGCUGUGGCUAGACUGCC [C10A C23A G29U] showed a self-cleavage of 0.02.
GGCAGAGCUAAACACAGCGUGGAAAAGUGGCUUUGGCUAGACUGCC [C10A C23A G33U] showed a self-cleavage of 0.01.
Variant GGCAGAGCUAAACACAGCGUGGAAAAGCGGCUGUGGCUAGACUGCC [C10A C23A U28C] has a self-cleavage of 0.03.
Work on GGCAGAGCUAAACACAGCGUGGGAAAGUGUCUAUGGGUAGAAUGCC [C10A C23G G30U G33A C37G C42A] yielded a self-cleavage of 0.01.
For GGCAGAGCUAAACACAGCGUGGUAAAGUGGCUGUGGCUUGACUGCC [C10A C23U A39U], the self-cleavage was 0.33.
In the case of GGCAGAGCUAAACACAGCGUGGUAAAGUGGUUGUGGCUAGACUGCC [C10A C23U C31U], the self-cleavage is reported as 0.1.
With GGCAGAGCUAAACACAGCGUGGCAAAGUGGAUGUGGCUAGACUGUC [C10A C31A C45U] the self-cleavage was 0.03.
Work on GGCAGAGCUAAACACAGCGUGGCAAAGUGGGUGUAGCUAGACUGCC [C10A C31G G35A] yielded a self-cleavage of 0.02.
For GGCAGAGCUAAACACAGCGUGGCAAAGUGGUUGUGGCUAGUCUGCC [C10A C31U A41U], the self-cleavage was 0.02.
For GGCAGAGCUAAACACAGCGUGGCAAAGUGGUUGUGCCUAGACUGAC [C10A C31U G36C C45A], the self-cleavage was 0.02.
For GGCAGAGCUAAACACAGCGUGGCAAAGUGGCUGUGGCUAGAGUGCA [C10A C42G C46A], the self-cleavage was 0.02.
Work on GGCAGAGCUAAACACAGCGUGGCAAAGUGGCUGUGGCUAGAGUGCU [C10A C42G C46U] yielded a self-cleavage of 0.01.
For GGCAGAGCUAAACACAACUUGGCAAAGUGGCGGUGGCUUGACUGCC [C10A G17A G19U U32G A39U], the self-cleavage was 0.13.
With GGCAGAGCUAAACACAACGUCGCAAAGUGGCUGUGGCUAGACUGCC [C10A G17A G21C] the self-cleavage was 0.01.
